Test results: the supplement of paper PMC4604168 (melanoma cell lines)
Some of the results follow. Repeats are few or missing, and single values can be far off.

What was measured:
Test in all cases: cell count relative to DMSO control; melanoma cells; higher = more viable cells
Details in all cases: library dose: low library concentration; 72 h
WM115 = tested on: WM115
WM1716 = tested on: WM1716
WM1745 = tested on: WM1745
WM3526 = tested on: WM3526
WM3619 = tested on: WM3619
WM451Lu = tested on: WM451Lu
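Also: cell number obtained by counting DAPI-stained nuclei in high-throughput microscope images with image analysis software, screen run in 1,536-well plates.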

| Structure (SMILES) | cell count (WM115) | cell count (WM1716) | cell count (WM1745) | cell count (WM3526) | cell count (WM3619) | cell count (WM451Lu) |
| --- | --- | --- | --- | --- | --- | --- |
| C[C@]12O[C@H](C[C@]1(O)CO)n1c3ccccc3c3c4c(c5c6ccccc6n2c5c31)CNC4=O [Lestaurtinib] + CN(C)S(=O)(=O)c1ccc2c(c1)/C(=C/c1cc3c([nH]1)CCCC3)C(=O)N2 [SU6656] (first compound 0.004 µM, partner dose 0.4 µM) | 67.9% | 107% | 83% | 70.1% | 102% | 111% |
| C[As](C)SC[C@H](NC(=O)CC[C@H](N)C(=O)O)C(=O)NCC(=O)O [Darinaparsin] + CCCCCCCCCCCC1=C(O)C(=O)C=C(O)C1=O [Embelin] (first compound 0.4 µM, partner dose 1.2 µM) | 93.6% | 111% | 95.6% | 100% | 105% | 117% |
| C[C@]12O[C@H](C[C@]1(O)CO)n1c3ccccc3c3c4c(c5c6ccccc6n2c5c31)CNC4=O [Lestaurtinib] + O=C(O)c1ccc2c(c1)nc(Nc1cccc(Cl)c1)c1ccncc12 [CX4945] (first compound 0.004 µM, partner dose 0.4 µM) | 104% | 104% | 93.4% | 82% | 98% | 88.6% |
| C[C@]12O[C@H](C[C@]1(O)CO)n1c3ccccc3c3c4c(c5c6ccccc6n2c5c31)CNC4=O [Lestaurtinib] + COc1ccc(COc2ccc(Cc3cnc(N)nc3N)cc2OC)cc1 [GW2580] (first compound 0.004 µM, partner dose 1 µM) | 92.4% | 93% | 90.4% | 83.2% | 103% | 107% |
| N.N.[Cl][Pt][Cl] [cisplatin] + NC(=O)Nc1cc(-c2cccc(F)c2)sc1C(=O)N[C@H]1CCCNC1 [AZD7762] (first compound 1.6 µM, partner dose 0.02 µM) | 90.3% | 87.6% | 99.3% | 91.2% | 93% | 84.2% |
| C[C@]12O[C@H](C[C@]1(O)CO)n1c3ccccc3c3c4c(c5c6ccccc6n2c5c31)CNC4=O [Lestaurtinib] + O=C1NC(=O)/C(=C/c2ccc(-c3ccc(F)cc3O)o2)S1 [AS252424] (first compound 0.004 µM, partner dose 1 µM) | 119% | 112% | 94.8% | 92.6% | 102% | 97.3% |
| Cn1cc(C2=C(c3cn(C4CCN(Cc5ccccn5)CC4)c4ccccc34)C(=O)NC2=O)c2ccccc21 [Enzastaurin] + COc1cc(N2CCC(N3CCN(C)CC3)CC2)ccc1Nc1ncc(Cl)c(Nc2ccccc2S(=O)(=O)C(C)C)n1 [NVP-TAE684] (first compound 0.8 µM, partner dose 0.08 µM) | 99.2% | 108% | 70.1% | 88% | 104% | 93.8% |
| C[C@]12O[C@H](C[C@]1(O)CO)n1c3ccccc3c3c4c(c5c6ccccc6n2c5c31)CNC4=O [Lestaurtinib] + C#Cc1cccc(Nc2ncnc3cc(OCCOC)c(OCCOC)cc23)c1 [erlotinib] (first compound 0.004 µM, partner dose 0.8 µM) | 90% | 98.1% | 92.6% | 64.8% | 85.8% | 115% |
| N.N.[Cl][Pt][Cl] [cisplatin] + O=C1NC(=O)/C(=C/c2ccc(-c3ccc(F)cc3O)o2)S1 [AS252424] (first compound 1.6 µM, partner dose 1 µM) | 101% | 99.2% | 88% | 85.3% | 117% | 81.6% |
| C[C@]12O[C@H](C[C@]1(O)CO)n1c3ccccc3c3c4c(c5c6ccccc6n2c5c31)CNC4=O [Lestaurtinib] + C[C@@H]1CCN(C(=O)CC#N)C[C@@H]1N(C)c1ncnc2[nH]ccc12 [CP690550] (first compound 0.004 µM, partner dose 1 µM) | 109% | 115% | 104% | 75.7% | 106% | 96.6% |
| C[As](C)SC[C@H](NC(=O)CC[C@H](N)C(=O)O)C(=O)NCC(=O)O [Darinaparsin] + Cc1cc([N+](=O)[O-])ccc1NS(=O)(=O)c1cc(Cl)ccc1Cl [FH535] (first compound 0.4 µM, partner dose 1 µM) | 98% | 81.4% | 90.6% | 89.3% | 94.6% | 109% |
| C[C@]12O[C@H](C[C@]1(O)CO)n1c3ccccc3c3c4c(c5c6ccccc6n2c5c31)CNC4=O [Lestaurtinib] + Cn1cc(/C=C2\C(=O)Nc3cccnc32)c2ccccc21 [GW441756] (first compound 0.004 µM, partner dose 0.4 µM) | 92.8% | 127% | 76.8% | 93.5% | 117% | 101% |
| C[As](C)SC[C@H](NC(=O)CC[C@H](N)C(=O)O)C(=O)NCC(=O)O [Darinaparsin] + O=C1NC(=O)/C(=C/c2ccc(-c3ccc(F)cc3O)o2)S1 [AS252424] (first compound 0.4 µM, partner dose 1 µM) | 99.9% | 106% | 86.2% | 111% | 119% | 104% |
| C[As](C)SC[C@H](NC(=O)CC[C@H](N)C(=O)O)C(=O)NCC(=O)O [Darinaparsin] + Cc1cc(SCc2sc(-c3ccc(C(F)(F)F)c(F)c3)nc2C)ccc1OCC(=O)O [GW0742] (first compound 0.4 µM, partner dose 2 µM) | 115% | 98% | 92.9% | 145% | 117% | 98.2% |
| Cn1cc(C2=C(c3cn(C4CCN(Cc5ccccn5)CC4)c4ccccc34)C(=O)NC2=O)c2ccccc21 [Enzastaurin] + O=C(Nc1cccc(Cl)c1)Nc1ncc(CCNc2ncnc3ccsc23)s1 [SNS314] (first compound 0.8 µM, partner dose 0.0008 µM) | 94.1% | 104% | 90.3% | 99.7% | 109% | 100% |
| C[As](C)SC[C@H](NC(=O)CC[C@H](N)C(=O)O)C(=O)NCC(=O)O [Darinaparsin] + C/C(O)=C(\C#N)C(=O)Nc1cc(Br)ccc1Br [LFM-A13] (first compound 0.4 µM, partner dose 2 µM) | 95.3% | 91.4% | 99% | 94.1% | 120% | 85.2% |
| N.N.[Cl][Pt][Cl] [cisplatin] + CC(C)CCN1c2nc(Nc3cc(F)c(O)c(F)c3)ncc2N(C)C(=O)C1C [BID1870] (first compound 1.6 µM, partner dose 0.2 µM) | 97.1% | 102% | 101% | 94.7% | 74.6% | 77.9% |
| N.N.[Cl][Pt][Cl] [cisplatin] + COc1ccc(COc2ccc(Cc3cnc(N)nc3N)cc2OC)cc1 [GW2580] (first compound 1.6 µM, partner dose 1 µM) | 93% | 104% | 115% | 103% | 130% | 89.7% |
| N.N.[Cl][Pt][Cl] [cisplatin] + c1cc(-c2cnn3cc(-c4ccc(OCCN5CCCCC5)cc4)cnc23)ccn1 [Dorsomorphin] (first compound 1.6 µM, partner dose 0.4 µM) | 94.4% | 86.1% | 89.9% | 88.8% | 100% | 68.8% |
| N.N.[Cl][Pt][Cl] [cisplatin] + CN1CCN(c2ccc3nc(-c4c(N)c5c(F)cccc5[nH]c4=O)[nH]c3c2)CC1 [Dovitinib] (first compound 1.6 µM, partner dose 0.1 µM) | 110% | 99.3% | 92.4% | 84% | 98.5% | 86.8% |
| N.N.[Cl][Pt][Cl] [cisplatin] + Cc1ccc(NC(=O)c2cccc(N(C)C)c2)cc1NC(=O)c1ccc(O)cc1 [ZM336372] (first compound 1.6 µM, partner dose 2 µM) | 90.3% | 112% | 77.6% | 98% | 76.7% | 94.2% |
